# Measured values as given in PubChem BioAssay AID1460 (National Center for Advancing Translational Sciences (NCATS), 2008).
# Values joined by “and” are separate entries in the source; they are usually repeats but may differ in a detail not shown here. Identical values can stand only once. About 5,800 (2.1%) of roughly 270,000 compounds were called active. The inconclusive results got no clear call from the source; some entries with a clear call stand among them for comparison. Calls follow the shape of the dose curve; as a rule, active = well fitted inhibition curve with a large enough effect; inconclusive = small, poorly fitted or top-dose-only effect; inactive = flat fitted curve, though single readings scatter. Where the call is inconclusive, the potency comes from a doubtful curve fit.
# Target: Microtubule-associated protein tau (Homo sapiens) (UniProt P10636)
# Sequence of UniProt P10636 (P10636 whole entry, looked up): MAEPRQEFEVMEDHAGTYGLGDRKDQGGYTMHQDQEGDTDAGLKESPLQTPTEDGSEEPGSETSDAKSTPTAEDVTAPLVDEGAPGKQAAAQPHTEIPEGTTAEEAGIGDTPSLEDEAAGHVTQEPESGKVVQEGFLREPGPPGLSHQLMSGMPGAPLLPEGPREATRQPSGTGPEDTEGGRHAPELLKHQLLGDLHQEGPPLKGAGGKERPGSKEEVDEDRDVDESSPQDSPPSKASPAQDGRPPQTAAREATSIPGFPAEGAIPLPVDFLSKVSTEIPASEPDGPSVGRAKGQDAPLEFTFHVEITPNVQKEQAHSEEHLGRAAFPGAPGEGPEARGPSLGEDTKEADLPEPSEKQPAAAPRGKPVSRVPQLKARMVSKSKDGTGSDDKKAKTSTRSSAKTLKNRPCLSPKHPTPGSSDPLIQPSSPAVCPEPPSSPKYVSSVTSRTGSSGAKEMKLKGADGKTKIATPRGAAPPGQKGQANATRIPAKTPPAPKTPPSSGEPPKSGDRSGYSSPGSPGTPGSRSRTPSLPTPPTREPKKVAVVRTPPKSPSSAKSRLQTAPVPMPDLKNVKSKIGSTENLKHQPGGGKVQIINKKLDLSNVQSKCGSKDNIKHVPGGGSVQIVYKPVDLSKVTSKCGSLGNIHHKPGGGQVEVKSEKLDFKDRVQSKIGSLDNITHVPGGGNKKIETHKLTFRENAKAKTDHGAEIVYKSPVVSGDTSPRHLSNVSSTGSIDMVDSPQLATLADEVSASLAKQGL
# Experiment: qHTS for Inhibitors of Tau Fibril Formation, Thioflavin T Binding; also: nearly all actives have a fitted effect of over 55% in size
# Details: recombinant tau K18 P301L (four-repeat tau fragment), heparin-induced fibrillization, ThT fluorescence; series mostly up to 57.4 µM
# Method in brief: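 Aggregation was driven by heparin (20 uM final) acting on recombinant tau […] bearing P301L in 100 mM sodium acetate pH 7; fibrils were detected with Thioflavin T.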
# Potency is read from the fitted curve at half-maximal effect; tags tell the direction and shape of the fitted curve.
row,SMILES,Potency
1,CCOC(=O)Cc1nnc(NC(=O)COc2ccc(OC)cc2)s1,"inconclusive: 17.8 µM [inhibitor, partial curve]"
2,Cc1ccc(OCCN2CCN(CC(O)Cn3c4ccccc4c4ccccc43)CC2)cc1 (configuration not stated),"inconclusive: 12.6 µM [inhibitor, partial curve]"
3,O=C1Nc2cc(Cl)cnc2N2CCCC12 (configuration not stated),active: 14.1 µM
4,Cc1ccc(C)c(CSc2cn(CCNC(=O)c3cccs3)c3ccccc23)c1,"inconclusive: 8.91 µM [inhibitor, full curve, poor fit]"
5,Fc1ccc(C[n+]2csc3ccccc32)cc1,"inconclusive: 35.5 µM [inhibitor, single point]"
6,Cc1ccc(NC(=O)c2nc(C)n(-c3ccc([N+](=O)[O-])cc3)n2)cc1,"inconclusive: 14.1 µM [inhibitor, partial curve]"
7,N#C/C(C(=O)NCc1ccccc1)=C1/N=C(NC(=O)c2ccco2)c2ccccc21,"inconclusive: 20 µM [inhibitor, partial curve]"
8,O=[N+]([O-])c1ccc(-c2ccc(S(=O)(=O)NCCN3CCCC3)cc2)cc1,"inconclusive: 10 µM [inhibitor, partial curve]"
9,COC(=O)CCSc1cc([N+](=O)[O-])cc2c1c(C1OCCO1)nn2-c1ccccc1,"inconclusive: 20 µM [inhibitor, single point]"
10,CN1CCN(C(=O)/C(=C\c2ccccc2)c2ccccc2)CC1,inactive
11,O=C(Nc1ccc(Cl)c(Cl)c1)c1cccc(S(=O)(=O)NCc2cccnc2)c1,inactive
12,COc1cccc(NC(=O)c2sc3nc(C)c(C(=O)Nc4ccc(C)cc4C)c(-c4ccc(C)o4)c3c2N)c1,"inconclusive: 3.55 µM [inhibitor, full curve]"
13,O=C(C1=C[C@H](c2ccccc2)C[C@H](OCc2ccc(CO)cc2)O1)N1CCN(Cc2ccccc2)CC1,"inconclusive: 0.891 µM [inhibitor, single point]"
14,CC(C)c1ccc2oc(-c3cc(NC(=O)c4cccnc4)ccc3Cl)nc2c1,inactive
15,CN1CCN(C(=O)CSc2ccc(C(F)(F)F)cc2[N+](=O)[O-])CC1,inactive
16,Fc1ccc(C(c2ccc(F)cc2)N2CCN(C/C=C/c3ccccc3)CC2)cc1,"inconclusive: 22.4 µM [inhibitor, single point] and inconclusive: 14.1 µM [inhibitor, partial curve]"
17,CCOC(=O)c1ccc(NC(=O)c2nc[nH]c2C(=O)N[C@H](C)c2ccccc2)cc1,"inconclusive: 0.316 µM [activator, full curve, poor fit]"
18,Nc1ccccc1C(=O)NNC1=C(C(=O)C(F)(F)F)CCC1,"inconclusive: 0.0355 µM [inhibitor, full curve, poor fit]"
19,CCOc1ccc(S(=O)(=O)Nc2nc3ccccc3nc2-n2ccc(=NC(=O)c3ccccc3C)cc2)cc1,"inconclusive: 7.08 µM [inhibitor, partial curve]"
20,CCC1=C(OC(=O)N(CC)CC)N2C(=O)OC(=NCCc3c[nH]c4ccccc34)[C@]2(C)[C@H]2C1=CC[C@H]1C(=O)NC(=O)[C@H]12,"inconclusive: 7.08 µM [inhibitor, partial curve, poor fit]"
21,COc1ccc(C(C)=O)cc1COc1ccc(-n2cnnn2)cc1,inactive
22,O=C(Nc1cccc(F)c1)C1CCN(S(=O)(=O)c2ccc3[nH]c4c(c3c2)CCCCC4)CC1,inactive
23,CCOC(=O)COc1cc(=O)n(CC)c2ccccc12,inactive
24,COc1ccc(NC(=O)C2CC(=O)n3cnnc3S2)cc1 (configuration not stated),inactive

row,SMILES,Potency
1,COc1ccc(C2c3sc(=O)[nH]c3SC3C(=O)N(c4ccccc4)C(=O)C32)cc1 (configuration not stated),"inconclusive: 11.2 µM [inhibitor, partial curve]"
2,O=C(Nc1cnn(Cc2ccccc2)c1)c1cc2nc(-c3ccco3)cc(C(F)(F)F)n2n1,"inconclusive: 20 µM [inhibitor, partial curve]"
3,COc1cc(O)ccc1-c1nc2cc(C)ccn2c1Nc1ccccc1C,"inconclusive: 22.4 µM [inhibitor, partial curve]"
4,NS(=O)(=O)c1ccc(NC(=S)NC2CCCCCC2)cc1,inactive
5,COc1ccc(CCC(C)NC2C3CC4CC(C3)CC2C4)cc1 (configuration not stated),inactive
6,O=C(Nc1ncc([N+](=O)[O-])s1)c1cccc([N+](=O)[O-])c1,active: 17.8 µM
7,COc1ccccc1CNC(=O)c1ccc(-c2ccccc2)cc1,inactive
8,Cc1ccc(S(=O)(=O)NCCCOC(=O)Nc2ccncc2)cc1,inactive
9,CC1CC(C)CN(C(=O)CSc2nc(Cc3cccs3)nc3ccccc23)C1 (configuration not stated),"inconclusive: 17.8 µM [inhibitor, single point]"
10,CCCC(=O)Nc1cc(-c2nc3cccnc3s2)ccc1C,"inconclusive: 20 µM [inhibitor, single point]"
11,COc1ccc(C(=O)Nc2ccc3oc(-c4ccc(OC)cc4)nc3c2)cc1,"inconclusive: 0.251 µM [inhibitor, full curve]"
12,CCn1c(-c2ccc3ncccc3c2)n[nH]c1=S,"inconclusive: 6.31 µM [inhibitor, partial curve]"
13,Cc1ccc(-n2cc(CNCCN3CCOC3=O)c(-c3cccc(C)c3)n2)cc1,"inconclusive: 10 µM [inhibitor, partial curve]"
14,COc1ccccc1NC(=O)CN(Cc1ccco1)C(=O)c1ccc(-n2nc(C)cc2C)cc1,inactive
15,Cc1ccc(/C=N/Nc2nncc(-c3ccccc3)n2)o1,"inconclusive: 3.16 µM [inhibitor, partial curve]"
16,Cc1ccnc(NC(=O)CCCOc2ccc(Cl)cc2C)c1,"inconclusive: 14.1 µM [inhibitor, partial curve]"
17,COc1ccc2c(c1)Cc1sc(NC(=O)c3cccc(F)c3)nc1-2,active: 3.16 µM
18,CC(NC(=O)c1cccc(NC(=O)c2nsc3ccccc23)c1)c1ccccc1 (configuration not stated),inactive
19,Cc1ccc(-c2nnc(Nc3ccc(S(N)(=O)=O)cc3)c3ccccc23)cc1S(=O)(=O)N1CCOCC1,"inconclusive: 11.2 µM [inhibitor, partial curve]"
20,CCCNC(=O)c1nnsc1S(=O)c1ccc(Cl)cc1 (configuration not stated),"inconclusive: 1.26 µM [inhibitor, partial curve, poor fit]"
21,COc1ccccc1C1CC(c2ccccc2)=NN1C(=S)Nc1ccccc1 (configuration not stated),inactive
22,Cc1ccc(C)c(Cn2c(SCC(=O)N(C)Cc3ccccc3)nc3ccccc32)c1,inactive
23,Cc1ccc(C)c(N2CCN(C(=O)CCCCCn3c(=O)[nH]c4ccccc4c3=O)CC2)c1,"inconclusive: 12.6 µM [inhibitor, partial curve]"
24,N#C/C(=C\c1cccc(Cl)c1)C(=O)c1ccccc1,inactive

row,SMILES,Potency
1,COc1ccccc1Nc1ccc([N+](=O)[O-])cn1,"inconclusive: 12.6 µM [inhibitor, partial curve]"
2,O=C(COC(=O)CCc1nc2ccccc2c(=O)[nH]1)NC(c1ccccc1)c1ccccc1,inactive
3,Cc1ccccc1OCC(=O)Nc1ccc2nc(SCCOc3ccccc3)sc2c1,"inconclusive: 1.58 µM [inhibitor, full curve, poor fit]"
4,N#CC(C#N)=C1C=CC=CN1/C(=C\c1ccco1)C(=O)c1ccc(Br)cc1,active: 11.2 µM
5,O=C(Nc1cc(Cl)ccc1Cl)C1(c2cccs2)CCOCC1,inactive
6,Cc1ccc2cccc(NC(=O)C(C)Oc3ccc(C)c(C)c3)c2n1 (configuration not stated),inactive
7,O=C(O)c1cc(O)c2c(c1)C(=O)c1cccc(O)c1C2=O,active: 17.8 µM
8,O=C1C=CC(=O)N1c1ccc(OC(F)F)cc1,inactive
9,CCCn1nnnc1NC(=O)COc1ccc(CC)cc1,inactive
10,C=CCn1cc(/C=N\NC(=O)c2cc3c(ccc4ccccc43)o2)c2ccccc21,"inconclusive: 3.55 µM [inhibitor, partial curve]"
11,O=C(OCc1ccccc1)c1ccc2c(c1)-c1ccccc1C2=O,"inconclusive: 15.8 µM [inhibitor, partial curve]"
12,CC(O)/C=C/c1ccc2ccccc2n1 (configuration not stated),"inconclusive: 22.4 µM [inhibitor, single point]"
13,O=C(NCC1CCCO1)C1CC(=O)N(c2ccc(F)c(Cl)c2)C1 (configuration not stated),inactive
14,Cc1ccc(C(=O)CSc2nnc(-c3ccccc3)n2-c2ccccc2)cc1,"inconclusive: 5.62 µM [inhibitor, full curve, poor fit]"
15,COc1cccc(-n2c(-c3ccco3)nc3c(cnn3-c3ccc(C)cc3)c2=O)c1,inactive
16,CC(=O)Nc1ccc(S(=O)(=O)NC2(C(F)(F)F)C(=O)Nc3c2c(=O)[nH]c(=O)n3-c2ccc(C)c(C)c2)cc1 (configuration not stated),inactive
17,Cc1ccc(N2C(=O)C3C(C2=O)C(C(=O)c2ccc(Cl)cc2)N2CCCC32)cc1 (configuration not stated),"inconclusive: 25.1 µM [inhibitor, partial curve]"
18,Cn1ccc(NC(=O)Nc2ccc(Cl)cc2Cl)n1,"inconclusive: 3.16 µM [inhibitor, full curve]"
19,O=C(Nc1nnc(SCC(=O)N2CCCCC2)s1)C1CCCCC1,inactive
20,O=C(NCc1cccs1)C(=O)NCC(c1ccco1)N1CCN(c2ccccc2)CC1 (configuration not stated),inactive
21,CCOC(=O)c1c(C2COc3ccccc3O2)csc1N (configuration not stated),"inconclusive: 28.2 µM [inhibitor, partial curve]"
22,CN(C)c1ccc(C(CNS(=O)(=O)c2ccc(F)cc2)N2CCCC2)cc1 (configuration not stated),inactive
23,Clc1ccc(-c2nnc(Sc3nc4ccccc4o3)c3ccccc23)cc1,"inconclusive: 22.4 µM [inhibitor, partial curve]"
24,Cc1ccc(C2=Nc3ccccc3N(C(=O)c3ccccc3)C(C)C2)cc1 (configuration not stated),inactive
